Screen size: about 150,000 compounds; about 540 (0.36%) showed an effect of 50% or more. The list shows a part of the results.
System: Plasmodium falciparum
Experiment: Primary screen in NF54 nanoGlo assay, in single point, at 2uM, 72h; a lower Z score goes with more inhibition
Assay type: functional, Erythrocyte
Conditions: timepoint 72 hour

Row | Structure (SMILES) | % Inhibition | Z score
1 | Cc1noc(COc2ccc(C(=O)N(C)[C@@H](C)c3nc(C)no3)cn2)n1 | 0% | 0.01
2 | O[C@@H](CNCc1ccc(C2CC2)cc1F)c1ccccn1 | -18% | 1.62
3 | CCc1c2c(nc3ccccc13)CCS2(=O)=O | -13% | 2.35
4 | C[C@H]1CN(C(=O)Nc2ccc(OCc3cccnc3)cc2)CCO1 | -10% | 1.13
5 | CN1CCC2(CC1)CCN(C(=O)Cc1ccc3c(c1)COC3)C2 | -6% | 0.72
6 | COc1cccc(N2CCN(c3cc([C@H]4C[C@@H](N)C4)ncn3)CC2(C)C)c1 | -9% | 1.39
7 | CC(C)N1C2CCC1CN(Cc1ccc(C(=O)O)cc1)CC2 (stereo not drawn) | -2% | 0.38
8 | CC1CCC(N(Cc2nnc(C3CCC3)o2)C2CCC(O)CC2)CC1 (stereo not drawn) | 1% | -0.07
9 | CC1(C)COCCN1C(=O)COCC(=O)N1CCOCC1(C)C | -3% | 0.62
10 | Cc1ocnc1C(=O)N(CCN(C)C)C1CCCCC1 | -8% | 0.77
11 | O=C(c1cccs1)N1CCC[C@H](Oc2cnccn2)C1 | -11% | 1.86
12 | CCn1cc(CN2C[C@@H](Oc3ccccc3)C[C@H]2C(N)=O)c(C)n1 | -10% | 1.54
13 | CC(C)(C)c1ccc(C(=O)N2CCOC[C@](O)(CN3CCCC3)C2)cc1 | 6% | -0.85
14 | CCc1ccccc1C(=O)N1CCC(N2CCCOCC2)CC1 | -1% | 0.08
15 | COCC(=O)NC[C@@H]1C[C@H](F)CN1C(=O)CCc1nc2ccccc2s1 | -5% | 0.91
16 | CCOC(=O)c1sc(Nc2cnn(C)c2C)nc1C | 26% | -3.46
17 | COc1ccc(CNC(=O)c2c(O)n3c4c(cccc4c2=O)CCC3)cc1OC | -10% | 0.87
18 | CC1CCC(N2CCC(N(C)C(=O)Nc3cccc4ccccc34)CC2)CC1 (stereo not drawn) | 16% | -2.07
19 | O=C(NCc1ccccc1Cl)c1nnc(-c2ccccc2)o1 | -11% | 1.65
20 | C#CCCC1(CCC(=O)N2CC(n3cccn3)C2)N=N1 | -11% | 1.31
21 | CCCC[C@@H](C(=O)Nc1cc(C)on1)N1CCN(c2ncccn2)CC1 | 2% | -0.3

Row | Structure (SMILES) | % Inhibition | Z score
22 | COc1cc2c(cc1CNC(=O)c1ncoc1C)OCCO2 | -8% | 1.31
23 | O=C(Nc1cccc(Cn2ccnc2)c1)c1sccc1S(=O)(=O)N1CCOCC1 | 11% | -1.52
24 | Cc1c(NC(=O)CCCn2cncn2)cccc1-c1nncn1C | -18% | 1.82
25 | CC[C@@H](CNS(C)(=O)=O)NC(=O)c1ccc(C)c2c1CCC2 | 25% | -2.88
26 | Cc1cccc(-n2nc3nc(NCCN4CCCCC4)nc(-c4ccccc4)c3c2N)c1 | -3% | 0.26
27 | O=C(NCCc1ccn(-c2ccccc2)n1)c1nn(-c2ccc(F)cc2)cc1O | 15% | -1.78
28 | CC(C)(C)c1cc(CCC(=O)Nc2c3c(nc4ccccc24)CCCC3)cc(C(C)(C)C)c1O | -9% | 1.77
29 | CCn1nc(CN2CCC(NC(=O)Cc3ccc(OC)cc3)CC2)c2c1CCOC2 | -19% | 1.7
30 | CN(C)S(=O)(=O)N1CCC(C(=O)NCc2ccccc2CN2CCOCC2)CC1 | 12% | -1.61
31 | COC(=O)C1CCC(NC(=O)NC2CCC(C)CC2C)CC1 (stereo not drawn) | -3% | 0.3
32 | C[C@@]12CN(C(=O)C3CCC(S(C)(=O)=O)CC3)C[C@@H]1[C@@H]1CC[C@H]2C1 (stereo partly drawn) | 4% | -0.36
33 | COc1cccnc1C(=O)N1c2ccccc2CC[C@H]1C(=O)N1CCN(C)CC1 | 3% | -0.57
34 | Cc1nc(N(C)C)sc1CN(C)CCc1ccncc1 | -6% | 0.8
35 | CCn1ccnc1CS(=O)(=O)C1CCCCC1 | -12% | 1.82
36 | c1cncc(-c2noc(CN3CCCc4ccccc43)n2)c1 | 2% | -0.28
37 | CCN1C[C@H](CN(C)c2nn(C)c(=O)n(C)c2=O)Oc2ccccc21 | -15% | 1.95
38 | Cc1cnc(NCCCN(C)c2ccccc2)nc1 | 3% | -0.48
39 | Cc1cccc(-c2noc(N3CCOCC3)c2CN(Cc2ccc(F)cc2)C(=O)c2ccccc2)c1 | 3% | -0.41
40 | O=C(Cc1n[nH]c(-c2cccnc2)n1)NCc1ccccc1 | -1% | 0.09
41 | O=C(Nc1ccc2c(c1)cc(C(=O)NCCN1CCOCC1)n2Cc1cccc(F)c1)c1ccccc1Cl | -10% | 1.29
42 | CC(C)CN1C[C@@H]2C[C@@H](O)CN2C2(C1)CN(Cc1ccccc1F)C2 | 0% | -0.06

Row | Structure (SMILES) | % Inhibition | Z score
43 | O=C(NC1CCOc2ccccc21)C1CC(O)CN1 (stereo not drawn) | 7% | -1.04
44 | CC(C)Oc1cccc(Cn2nnnc2N(C)C[C@H]2COCCO2)c1 | -8% | 0.87
45 | O=C1C[C@H](NC(=O)c2cccc3ccccc23)CN1 | -2% | 0.3
46 | Cc1cc(C(=O)N2CCN(C[C@H](C)O)CC2)c2c(C3CC3)noc2n1 | 0% | 0.02
47 | CC(C)c1noc(-c2ccc(-c3cc[nH]n3)cc2)n1 | -3% | 0.59
48 | COCc1nc([C@H]2CCN(C(=O)Cc3ccccc3)C2)no1 | -2% | 0.44
49 | O=C(OCCc1n[nH]c(CCOC(=O)c2ccccc2)n1)c1ccccc1 | -2% | 0.33
50 | O=C1C2C3c4ccccc4C(c4ccccc43)[C@@H]2C(=O)N1c1nc(-c2ccccc2)cs1 (stereo partly drawn) | 5% | -0.78
51 | O=C1NCCCc2[nH]c(-c3nncn3C3CCCCC3)nc21 | -16% | 1.44
52 | COCCOCCC(=O)NC[C@H](C)c1nc2ccccc2o1 | -4% | 0.82
53 | COC(=O)[C@H]1CC[C@H](C(=O)N2CCC=Cc3ccccc32)CC1 | 2% | -0.19
54 | COCC(=O)N1CCN(C(=O)c2c(-c3ccccc3)oc(C)c2C)CC1 | -13% | 1.69
55 | CN1CC(=O)N2CCN(CCC(F)(F)F)C[C@H]2C1=O | 2% | -0.3
56 | O=C1C[C@]2(NC(=O)CC3CCN(CC(F)F)CC3)CCCC[C@@H]2N1 | -7% | 1.34
57 | CN(C[C@H]1CCCCO1)C(=O)NCc1nc[nH]n1 | 1% | -0.17
58 | C[C@@H](CCNC(=O)c1cc(-c2ccsc2)n[nH]1)n1ccnc1 | -4% | 0.68
59 | CCn1cnc2c(NCc3ccnc(C(F)(F)F)c3)ncnc21 | -3% | 0.42
60 | Cc1cc(N2CCC(NC(=O)CN3CCN(C(=O)OC(C)(C)C)CC3=O)CC2)ncn1 | -4% | 0.47
61 | Cc1ccsc1C(=O)Nc1ccc(N(C)C)nc1 | -6% | 0.84
62 | O=C(CN1C(=O)COc2ccc(C(=O)N3CCCC3)cc21)N1CCN(c2cccc(Cl)c2)CC1 | -3% | 0.46
63 | COc1ccc(-c2cc(C(F)F)nc(N[C@@H](C)c3ccc(N4CCOCC4)cc3)n2)cc1OC | 11% | -1.69

Row | Structure (SMILES) | % Inhibition | Z score
64 | C[C@H]1CN(C(=O)c2ccc3nccn3c2)CCN1 | -5% | 0.86
65 | CCC1(CO)CCN(C(=O)NCCc2ccsc2)CC1 | -14% | 1.44
66 | CO[C@@H]1CS(=O)(=O)[C@H]2CN(C(=O)Nc3cccc(-c4ncco4)c3C)C[C@@H]12 | -8% | 1.16
67 | O=C(NCc1cccc(Br)c1)[C@H]1CCCN(c2nc3ncccc3n3cccc23)C1 | -23% | 2.69
68 | CCNc1cc(C(=O)N2CCC3CCCCC32)ccn1 (stereo not drawn) | -10% | 1.06
69 | CC(C)(C)OC(=O)N[C@@H](Cc1ccccc1Cl)C(=O)O | 16% | -1.89
70 | COc1ccc([C@H]2C[C@H]3CC[C@@H](C2)N3C(=O)c2cnn(C(C)C)c2)cc1 | 5% | -0.61
71 | CC(C)[C@H](Cn1ccnc1)NC(=O)CCN1CCCCCCC1 | -12% | 1.65
72 | O=C(Cc1ccc(F)cc1)N1CC(Nc2cnccn2)C1 | -25% | 2.89
73 | Cn1cc(S(=O)(=O)N2CCN(c3cccc(OCc4ccccc4Cl)c3)CC2)cn1 | 1% | -0.12
74 | Cc1ncoc1C(=O)N1CCC[C@H]1c1ncc(C)n1Cc1cccnc1 | -7% | 0.88
75 | CCc1n[nH]c(C(=O)NCC2(CO)COC2)c1Br | 1% | -0.21
76 | COc1ccc(CC(=O)N2CCC(N3CCN(Cc4ccccc4)C(=O)C3=O)CC2)c(Cl)c1 | -15% | 2.02
77 | CN1CCCN(C(=O)c2csnn2)c2cc(F)ccc21 | 8% | -0.97
78 | OCC(CO)n1ccnc1-c1ccc(-n2cccn2)cc1 | -9% | 1.26
79 | O=C(CC1CCCC1)NC1CCN(Cc2cccc3nccn23)CC1 | -1% | 0.18
80 | CN(CCn1cccn1)C(=O)c1onc2c1CCCC2 | -10% | 1.51
81 | Cc1cccc(-c2ccc(C(=O)NCc3nc4ccccc4s3)c(N3CCC(O)CC3)n2)c1 | -9% | 1.34
82 | CCc1ncnc(NCc2c[nH]c(C(C)C)n2)c1F | 0% | 0.08
83 | Cc1cc(C)cc(NC(=O)N2CCC(C)(C(=O)NCc3ccc4c(c3)OCO4)CC2)c1 | -6% | 0.97
84 | O=C(Cn1cccn1)NCc1cccnc1N1CCOCC1 | -3% | 0.47

— ChEMBL document CHEMBL4888484, “Replenishing the malaria drug discovery pipeline: Screening and hit evaluation of the MMV Hit Generation Library 1 (HGL1) against asexual blood stage Plasmodium falciparum ,using a nano luciferase reporter read-out” (2022)
